The list shows a part of the results.
Molecular target: T1, MBP-FoxP1dN (Mus musculus, UniProt P58462 326-579)
T1 sequence: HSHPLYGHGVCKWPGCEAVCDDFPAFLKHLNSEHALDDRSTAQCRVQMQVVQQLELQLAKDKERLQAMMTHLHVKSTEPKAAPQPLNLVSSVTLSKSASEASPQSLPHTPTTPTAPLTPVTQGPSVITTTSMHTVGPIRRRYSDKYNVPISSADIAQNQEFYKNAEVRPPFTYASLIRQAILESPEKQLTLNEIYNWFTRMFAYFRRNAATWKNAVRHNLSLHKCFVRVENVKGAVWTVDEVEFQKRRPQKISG
Assay: PD-seq (MBP pull-down with sequencing); 20 mM Tris-HCl pH 7.5, 100 mM NaCl, 1.5 mM MgCl2, 0.4 uM protein, 0.1 uM dsDNA library, 30 min, room temperature, amylose pull-down; high values mean tight binding
Conditions: protein: recombinant; tags: His6-MBP; chain copies: 2; dsDNA, one strand shown
In short: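 The N-terminus-lacking fragment of mouse FoxP3 or FoxP1 carried a His6-MBP tag and was expressed in E. coli. At 0.4 µM it was incubated with 0.1 µM Klenow-filled degenerate double-stranded DNA library for 30 min at room temperature in Tris pH 7.5 buffer with NaCl and MgCl2, and complexes were caught on amylose resin, washed three times, released with proteinase K, PCR-barcoded and Illumina-sequenced. Binding is reads-per-million enrichment of pull-down over input with replicates pooled.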

Sequence | binding signal
GATGATTGTTCTCCCAGCTGATGAATTCCGGATTTCGAGTAAACAAATTTTCCTAATCTTTCTGTTCAAGCGCCATCTAC | 0.807 RPM ratio (pull-down/input)
GATGATTGTTCTCCCAGCTGATGAATTGACCCAGTCGAGTAAACAAATTTTCCTAATCTTTCTGTTCAAGCGCCATCTAC | 0.831 RPM ratio (pull-down/input)
GATGATTGTTCTCCCAGCTGATGAATTATCTCCGTCGAGTAAACAAATTTTCCTAATCTTTCTGTTCAAGCGCCATCTAC | 0.918 RPM ratio (pull-down/input)
GATGATTGTTCTCCCAGCTGATGAATTTTCTTCCTCGAGTAAACAAATTTTCCTAATCTTTCTGTTCAAGCGCCATCTAC | 0.86 RPM ratio (pull-down/input)
GATGATTGTTCTCCCAGCTGATGAATTCATCGCTTCGAGTAAACAAATTTTCCTAATCTTTCTGTTCAAGCGCCATCTAC | 0.911 RPM ratio (pull-down/input)
GATGATTGTTCTCCCAGCTGATGAATTCTTTTTATCGAGTAAACAAATTTTCCTAATCTTTCTGTTCAAGCGCCATCTAC | 1 RPM ratio (pull-down/input)
GATGATTGTTCTCCCAGCTGATGAATTCATTGCTTCGAGTAAACAAATTTTCCTAATCTTTCTGTTCAAGCGCCATCTAC | 0.935 RPM ratio (pull-down/input)
GATGATTGTTCTCCCAGCTGATGAATTTCTAATTTCGAGTAAACAAATTTTCCTAATCTTTCTGTTCAAGCGCCATCTAC | 1.03 RPM ratio (pull-down/input)
GATGATTGTTCTCCCAGCTGATGAATTGTTCAGATCGAGTAAACAAATTTTCCTAATCTTTCTGTTCAAGCGCCATCTAC | 1.12 RPM ratio (pull-down/input)
GATGATTGTTCTCCCAGCTGATGAATTTCAACATTCGAGTAAACAAATTTTCCTAATCTTTCTGTTCAAGCGCCATCTAC | 0.964 RPM ratio (pull-down/input)
GATGATTGTTCTCCCAGCTGATGAATTACCTCAATCGAGTAAACAAATTTTCCTAATCTTTCTGTTCAAGCGCCATCTAC | 1.1 RPM ratio (pull-down/input)
GATGATTGTTCTCCCAGCTGATGAATTCGAAGTGTCGAGTAAACAAATTTTCCTAATCTTTCTGTTCAAGCGCCATCTAC | 0.856 RPM ratio (pull-down/input)
GATGATTGTTCTCCCAGCTGATGAATTTAGCCTGTCGAGTAAACAAATTTTCCTAATCTTTCTGTTCAAGCGCCATCTAC | 0.841 RPM ratio (pull-down/input)
GATGATTGTTCTCCCAGCTGATGAATTCGAGCTGTCGAGTAAACAAATTTTCCTAATCTTTCTGTTCAAGCGCCATCTAC | 0.846 RPM ratio (pull-down/input)
GATGATTGTTCTCCCAGCTGATGAATTGTGCCGTTCGAGTAAACAAATTTTCCTAATCTTTCTGTTCAAGCGCCATCTAC | 0.972 RPM ratio (pull-down/input)
GATGATTGTTCTCCCAGCTGATGAATTGAGGAAGTCGAGTAAACAAATTTTCCTAATCTTTCTGTTCAAGCGCCATCTAC | 0.788 RPM ratio (pull-down/input)

Sequence | binding signal
GATGATTGTTCTCCCAGCTGATGAATTGTGAAGATCGAGTAAACAAATTTTCCTAATCTTTCTGTTCAAGCGCCATCTAC | 1.02 RPM ratio (pull-down/input)
GATGATTGTTCTCCCAGCTGATGAATTTGCACTTTCGAGTAAACAAATTTTCCTAATCTTTCTGTTCAAGCGCCATCTAC | 1.12 RPM ratio (pull-down/input)
GATGATTGTTCTCCCAGCTGATGAATTGGAACGCTCGAGTAAACAAATTTTCCTAATCTTTCTGTTCAAGCGCCATCTAC | 0.813 RPM ratio (pull-down/input)
GATGATTGTTCTCCCAGCTGATGAATTATCGATTTCGAGTAAACAAATTTTCCTAATCTTTCTGTTCAAGCGCCATCTAC | 1.02 RPM ratio (pull-down/input)
GATGATTGTTCTCCCAGCTGATGAATTGCGTGACTCGAGTAAACAAATTTTCCTAATCTTTCTGTTCAAGCGCCATCTAC | 1.06 RPM ratio (pull-down/input)
GATGATTGTTCTCCCAGCTGATGAATTCCCTACTTCGAGTAAACAAATTTTCCTAATCTTTCTGTTCAAGCGCCATCTAC | 0.87 RPM ratio (pull-down/input)
GATGATTGTTCTCCCAGCTGATGAATTCTCGGATTCGAGTAAACAAATTTTCCTAATCTTTCTGTTCAAGCGCCATCTAC | 0.902 RPM ratio (pull-down/input)
GATGATTGTTCTCCCAGCTGATGAATTATTAGGTTCGAGTAAACAAATTTTCCTAATCTTTCTGTTCAAGCGCCATCTAC | 0.984 RPM ratio (pull-down/input)
GATGATTGTTCTCCCAGCTGATGAATTGTAACGCTCGAGTAAACAAATTTTCCTAATCTTTCTGTTCAAGCGCCATCTAC | 0.986 RPM ratio (pull-down/input)
GATGATTGTTCTCCCAGCTGATGAATTTTCGGTGTCGAGTAAACAAATTTTCCTAATCTTTCTGTTCAAGCGCCATCTAC | 0.894 RPM ratio (pull-down/input)
GATGATTGTTCTCCCAGCTGATGAATTTCGGAAATCGAGTAAACAAATTTTCCTAATCTTTCTGTTCAAGCGCCATCTAC | 1.02 RPM ratio (pull-down/input)
GATGATTGTTCTCCCAGCTGATGAATTTTTGGATTCGAGTAAACAAATTTTCCTAATCTTTCTGTTCAAGCGCCATCTAC | 0.948 RPM ratio (pull-down/input)
GATGATTGTTCTCCCAGCTGATGAATTTCACGTTTCGAGTAAACAAATTTTCCTAATCTTTCTGTTCAAGCGCCATCTAC | 0.862 RPM ratio (pull-down/input)
GATGATTGTTCTCCCAGCTGATGAATTGGCGGTATCGAGTAAACAAATTTTCCTAATCTTTCTGTTCAAGCGCCATCTAC | 0.894 RPM ratio (pull-down/input)
GATGATTGTTCTCCCAGCTGATGAATTCCATCGCTCGAGTAAACAAATTTTCCTAATCTTTCTGTTCAAGCGCCATCTAC | 0.823 RPM ratio (pull-down/input)

Reference: PMC12820563, “FoxP3 forms a head-to-head dimer in vivo and stabilizes its multimerization on adjacent microsatellites”
